# From PubChem BioAssay AID588342 (National Center for Advancing Translational Sciences (NCATS), 2011)
# Screen size: about 360,000 compounds; about 25,000 (6.9%) were called active. The shares of active, inactive and inconclusive entries below differ from those in the screen. Calls come from the whole dose curve; as a rule, active = well fitted inhibition curve with a large enough effect; inconclusive = small, poorly fitted or top-dose-only effect; inactive = flat fitted curve, though single readings scatter. A potency beside an inconclusive call is a rough fit, not a confirmed value.
# Target: Luciferin 4-monooxygenase (Photinus pyralis) (UniProt P08659)
# Sequence of UniProt P08659 (P08659 whole entry, looked up): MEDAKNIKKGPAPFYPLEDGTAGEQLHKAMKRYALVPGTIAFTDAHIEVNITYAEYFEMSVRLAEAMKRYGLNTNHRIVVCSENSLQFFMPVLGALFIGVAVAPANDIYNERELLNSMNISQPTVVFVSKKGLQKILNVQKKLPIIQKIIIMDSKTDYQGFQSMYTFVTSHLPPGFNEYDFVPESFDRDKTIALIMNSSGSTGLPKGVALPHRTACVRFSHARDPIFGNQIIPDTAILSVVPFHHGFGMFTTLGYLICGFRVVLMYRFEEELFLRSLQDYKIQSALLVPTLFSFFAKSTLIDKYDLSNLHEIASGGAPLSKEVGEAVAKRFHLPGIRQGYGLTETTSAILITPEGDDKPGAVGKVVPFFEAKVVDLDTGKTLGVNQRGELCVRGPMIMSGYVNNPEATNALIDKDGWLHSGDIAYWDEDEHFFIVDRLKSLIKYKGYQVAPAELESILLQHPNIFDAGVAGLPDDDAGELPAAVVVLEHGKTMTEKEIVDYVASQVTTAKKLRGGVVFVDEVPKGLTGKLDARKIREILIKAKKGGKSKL
# Assay: qHTS profiling assay for firefly luciferase inhibitor/activator using purifed enzyme and Km concentrations of substrates (counterscreen for miR-21 project); note: nearly all actives have a fitted effect of over 55% in size;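 for activity change, negative = inhibition: plate controls were vehicle for no effect and reference inhibitor for full effect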
# Details: purified FLuc, luminescence inhibition; activity change, negative = inhibition: at 57.5 µM (top of the series)
# Outline: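 Purified P. pyralis luciferase (10nM final) with 10uM D-luciferin and 10uM ATP (Km levels) in 50mM Tris acetate pH 7.5, 10mM Mg acetate, 0.01% Tween-20, 0.05% BSA; qHTS 6-point titration, ~60 µM downward; luminescence read.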
# Potency is the fitted concentration of half-maximal effect; tags give direction and shape of the fitted curve.
Compound,"activity change, negative = inhibition",Potency
Cc1ccc2oc(C(=O)N(Cc3cccc(F)c3)C3CCS(=O)(=O)C3)c(C)c2c1 (configuration not stated),inactive: -2.91%,–
COc1ccc(C2CC(c3ccc4ccccc4c3)=NN2C(=O)COC(=O)C2CCC(=O)N2)cc1 (configuration not stated),–,active: 23.9 µM
COc1c(O)ccc(/C=C(\C#N)c2nc3ccccc3[nH]2)c1[N+](=O)[O-],–,active: 26.9 µM
COc1ccc(N2CCN(C(=O)c3cc(S(=O)(=O)N4CCCCCC4)cn3C)CC2)cc1,–,"inconclusive: 37.9 µM [inhibitor, partial curve, poor fit]"
O=C(Nc1ccc(N2CCOCC2)c(Cl)c1)c1cc2ccccc2o1,–,active: 8.49 µM
COc1cccc(NC(=O)N2CCC(n3c(C)nc4cccnc43)CC2)c1,inactive: -6.92%,–
CN1CCN(c2nc(-c3cccnc3)nc3scc(-c4ccccc4)c23)CC1,–,"inconclusive: 37.9 µM [inhibitor, partial curve, poor fit]"
COc1cccc(C(=O)CC(=O)C(=O)Nc2cc(Cl)c(OC)cc2OC)c1,–,"inconclusive: 15.1 µM [inhibitor, partial curve, poor fit]"
Clc1ccc(OCc2nc(-c3ccncc3)no2)c(Cl)c1,–,active: 2.13 µM
O=C(NC(=S)Nc1cccnc1Cl)c1ccc(Cl)cc1,–,active: 16.9 µM
O=C(/C=C/c1ccccc1)NC(=S)Nc1ccccc1,–,"inconclusive: 19 µM [inhibitor, partial curve]"
Cc1ccccc1CNC(=O)c1ccc(Cn2c(SCc3cccc(F)c3)nc3cccnc32)cc1,inactive: -9.43%,–
COc1ccc(-c2ccc(NS(=O)(=O)c3cccc(Cl)c3)cc2)nn1,–,"inconclusive: 37.9 µM [inhibitor, partial curve, poor fit]"
CCc1ccc2c(c1)C(=O)c1ccccc1C2=O,–,active: 6.01 µM
Cc1ccc(C(=O)NCCOc2cccc3cccnc23)cc1Cl,–,"inconclusive: 26.9 µM [inhibitor, partial curve, poor fit]"
CC1=NN(c2ccccc2)C(=O)/C1=C\c1cn(-c2ccccc2)nc1C,–,"inconclusive: 37.9 µM [inhibitor, partial curve, poor fit]"
CCOc1ccc(NC(=O)C2CCN(S(=O)(=O)c3cc(-c4noc(C)n4)ccc3C)CC2)cc1,inactive: 1.53%,–
CC(OC(=O)c1cnc(Cl)c(Cl)c1)C(=O)NCc1ccccc1 (configuration not stated),inactive: -0.471%,–
O=C(CCCCCN1C(=O)c2cccc3cccc(c23)C1=O)NCCO,–,"inconclusive: 26.9 µM [inhibitor, partial curve, poor fit]"
CSc1cccc(-c2nnc(NC(=O)c3ccc4c(c3)OCCO4)o2)c1,–,"inconclusive: 21.3 µM [inhibitor, partial curve]"
C/C(NC(=O)c1ccccc1F)=C1\C(=O)C[C@@H]2[C@H]1C2(C)C,–,active: 15.1 µM
COc1ccc(S(=O)(=O)N2CCCCCC2)cc1C(=O)N(C)Cc1ccc(OC)c(OC)c1OC,inactive: 2.29%,–
CCCCC(=O)Oc1c(S(=O)(=O)c2ccc(C)cc2)c(C)nn1C(C)(C)C,inactive: -0.425%,–
NC(=O)c1cc(Cl)ccc1OCC(=O)N1CCCc2ccccc21,–,"inconclusive: 21.3 µM [inhibitor, single point]"

Compound,"activity change, negative = inhibition",Potency
COc1cccc(-c2cc(C(=O)Nc3ccccc3SC)no2)c1,–,active: 7.57 µM
COc1ccc(Nc2nc(N)c([N+](=O)[O-])c(NC3CCCCC3)n2)cc1,–,"inconclusive: 26.9 µM [inhibitor, single point]"
Cc1c(Cl)ccc2sc(NC(=O)C3CC3)nc12,–,"inconclusive: 8.49 µM [inhibitor, partial curve, poor fit]"
Cc1ccc(-c2csc(NC(=O)/C=C/c3cccs3)n2)cc1C,–,"inconclusive: 12 µM [inhibitor, partial curve, poor fit]"
Clc1nnc(N/N=C/c2ccccc2)c2ccccc12,–,active: 2.69 µM
Cc1cccc(CNC(=O)Cc2csc3ccccc23)c1,–,"inconclusive: 26.9 µM [inhibitor, partial curve]"
O=C(Nc1ccc(Oc2ccccc2)cc1)c1cnc2n(c1=O)CCS2,inactive: -13%,–
CCOC(=O)C1CCN(c2cc3c(cc2NC(=O)c2ccc(OC)c(OC)c2)n(C)c(=O)n3C)CC1,–,inactive
CCCOc1ccc(-c2nc(OC)c3ccccc3n2)cc1,–,active: 13.5 µM
CC(=O)c1ccccc1OCCOCCOCCOc1ccccc1C(C)=O,–,"inconclusive: 16.9 µM [inhibitor, partial curve, poor fit]"
O=C(O)c1cccc(Nc2ncnc3ccccc23)c1,–,active: 19 µM
CCCc1ccc(-c2ccc(C(=O)O)cc2)nc1,–,active: 1.51 µM
Cn1cc(SCC(=O)NCCc2ccccc2)c2ccccc21,inactive: 3.53%,–
Cc1ccc(C2=C(O)c3ccccc3C(=O)C2=O)cc1,–,"inconclusive: 37.9 µM [inhibitor, single point]"
O=C(CSc1nc2ccc(NC(=O)C3CCCCC3)cc2s1)NCC1CCCO1 (configuration not stated),–,active: 16.9 µM
O=C(c1ccc(-c2ccc([N+](=O)[O-])cc2)o1)N1CCCCC1,–,active: 6.75 µM
Cc1onc(-c2ccccc2)c1C(=O)OCC(=O)Nc1ccc2c(c1)OCO2,inactive: -0.625%,–
CCOc1ccc(CNC(=O)CN2C(=O)CCn3nc(-c4cn(C)c5ccccc45)cc32)cc1OC,inactive: -7.76%,–
Cc1noc(NS(=O)(=O)c2ccc(NC(=O)COc3ccc(Cl)cc3Cl)cc2)c1C,–,"inconclusive: 26.9 µM [inhibitor, single point]"
Cc1ccc(/C=C2\Oc3cc(OCC(=O)NN)ccc3C2=O)o1,–,active: 2.13 µM
CCCn1c2ccccc2c2cnn(CC(=O)Nc3cccc(C(=O)OCC)c3)c(=O)c21,–,"inconclusive: 8.49 µM [inhibitor, partial curve, poor fit]"
CCOC(=O)C1=C(C)NC(=O)C1CC(=O)Nc1ccccc1 (configuration not stated),–,"inconclusive: 15.1 µM [inhibitor, partial curve]"
CCOc1ccc(NC(=O)CSc2cc(C)c3ccccc3n2)cc1,inactive: -13.1%,–
Brc1ccccc1-c1nc2c3ccccc3ncn2n1,–,"inconclusive: 11.2 µM [inhibitor, partial curve, poor fit]"

Compound,"activity change, negative = inhibition",Potency
COc1ccc(C(=O)Nc2ccc(/C(C)=N/NC(=O)c3ccccc3O)cc2)cc1OC,–,"inconclusive: 15.1 µM [inhibitor, partial curve, poor fit]"
CC1CCN(Cc2nc(-c3ccc(Cl)cc3)no2)CC1,–,"inconclusive: 21.3 µM [inhibitor, single point]"
COc1cc(C2NC(C(=O)O)CS2)ccc1OCc1ccccc1C#N (configuration not stated),–,"inconclusive: 26.9 µM [inhibitor, partial curve]"
O=c1c(-c2ccc3c(c2)OCCO3)coc2cc(O)cc(O)c12,–,active: 4.78 µM
Cc1nn(-c2ccccc2)c(-n2cccc2)c1C(=O)NCc1ccccc1Cl,–,"inconclusive: 26.9 µM [inhibitor, partial curve, poor fit]"
O=C(Nc1ccc(NC(=O)c2cccs2)cc1)c1ccco1,–,"inconclusive: 5.36 µM [inhibitor, partial curve, poor fit]"
Cc1cc(C)cc(NC(=O)CSc2nnc(COc3ccccc3Cl)o2)c1,–,"inconclusive: 13.5 µM [inhibitor, partial curve]"
CCN(CC)S(=O)(=O)c1ccc2c(c1)c(=O)c(C(=O)N(C)Cc1ccccc1)cn2C,inactive: -1.32%,–
C=CCSc1nc(N)c(C#N)c(-c2ccc(C)cc2)c1C#N,–,"inconclusive: 6.75 µM [inhibitor, partial curve, poor fit]"
CCCCOC(=O)Nc1cccc(C(=O)OCC)c1,–,"inconclusive: 13.5 µM [inhibitor, partial curve]"
CCOC(=O)c1ccc(N2C(=O)CC(N(C)CCc3ccc(OC)c(OC)c3)C2=O)cc1 (configuration not stated),–,"inconclusive: 23.9 µM [inhibitor, single point]"
Cc1ccc(CCN2CC(C(=O)NCCN3CCOCC3)CC2=O)cc1 (configuration not stated),inactive: -1.78%,–
COc1ccccc1N1CCN(C(=O)Cc2c(C(=O)O)[nH]c3ccc(Cl)cc23)CC1,–,"inconclusive: 21.3 µM [inhibitor, single point]"
NC(=O)c1c(NC(=O)c2ccncc2)sc2c1CCCC2,–,active: 10.7 µM
CCN(c1ccc(C)cc1C)S(=O)(=O)c1nnc(NC(=O)C(C)(C)C)s1,inactive: -2.3%,–
Cc1ccccc1C(=O)/C=C1/SCC(=O)N1C,inactive: -3.24%,–
COc1cccc2cc(NC(=O)C3CCCCC3)c(=O)oc12,–,"inconclusive: 2.13 µM [inhibitor, full curve]"
O=C(O)C(Cc1ccccc1)n1c(=S)[nH]c2ccccc2c1=O (configuration not stated),–,"inconclusive: 21.3 µM [inhibitor, partial curve, poor fit]"
C/C(=N\NC(=O)c1cccc(S(=O)(=O)N2CCCC2)c1)c1cccs1,–,"inconclusive: 30.1 µM [inhibitor, partial curve, poor fit]"
COc1ccc(OC)c(NCc2cccn2-c2nnc(N3CCC(C)CC3)s2)c1,–,"inconclusive: 37.9 µM [inhibitor, single point]"
CC(C)(C)OC(=O)N1CCC(c2c(C(=O)Nc3ccc4c(c3)OCCO4)cnn2-c2ccc(F)cc2)CC1,–,"inconclusive: 15.1 µM [inhibitor, partial curve]"
Cc1ccnc(NCc2cc(C)ccc2O)c1,–,"inconclusive: 30.1 µM [inhibitor, single point]"
Cn1cccc1/C=C1\SC(=S)N(CC(=O)O)C1=O,–,"inconclusive: 37.9 µM [inhibitor, single point]"
O=C(Cc1ccccc1)N/N=C/c1ccc([N+](=O)[O-])s1,–,"inconclusive: 30.1 µM [inhibitor, partial curve, poor fit]"
